Assay results published in patent US20260042854A1, “ANTI-GLP-1R ANTIBODIES AND USES THEREOF” (SCIWIND BIOSCIENCES USA CO., LTD, priority 2022, published 2026).

Tests used:
[1] = biological target: hGLP-1R on the cell membrane (HEK293 cells overexpressing hGLP-1R) (human) (UniProt P43220); experiment: cell-based or functional assay
[2] = biological target: monkey GLP-1R (JN033215.1) on HEK293 cells (monkey); experiment: cell-based or functional assay

UniProt P43220, sequence (P43220 24-463): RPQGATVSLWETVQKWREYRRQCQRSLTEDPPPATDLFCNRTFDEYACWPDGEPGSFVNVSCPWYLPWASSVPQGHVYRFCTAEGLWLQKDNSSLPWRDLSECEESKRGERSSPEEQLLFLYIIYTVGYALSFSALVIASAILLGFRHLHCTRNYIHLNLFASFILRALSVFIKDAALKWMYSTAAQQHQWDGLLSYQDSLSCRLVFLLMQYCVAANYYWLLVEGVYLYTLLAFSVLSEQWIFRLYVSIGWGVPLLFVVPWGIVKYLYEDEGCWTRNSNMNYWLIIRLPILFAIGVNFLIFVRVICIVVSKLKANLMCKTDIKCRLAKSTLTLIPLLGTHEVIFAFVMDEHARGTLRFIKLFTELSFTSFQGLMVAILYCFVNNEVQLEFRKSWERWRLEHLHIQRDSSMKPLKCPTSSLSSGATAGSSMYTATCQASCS

Average IC50, nM; hGLP-1R-CRE-Luciferase-HEK293 reporter gene assay; antibody in PBS pH 5.5 at 40 C, Day 0 [1]: 6.8 nM
Average IC50, nM; hGLP-1R-CRE-Luciferase-HEK293 reporter gene assay; antibody in PBS pH 5.5 at 40 C, Day 10 [1]: 5.9 nM
Average IC50, nM; hGLP-1R-CRE-Luciferase-HEK293 reporter gene assay; antibody in PBS pH 5.5 at 40 C, Day 20 [1]: 6.7 nM
Average IC50, nM; hGLP-1R-CRE-Luciferase-HEK293 reporter gene assay; antibody in PBS pH 5.5 at 40 C, Day 30 [1]: 7.4 nM
Average IC50, nM; hGLP-1R-CRE-Luciferase-HEK293 reporter gene assay; antibody in PBS pH 7.4 at 40 C, Day 0 [1]: 19.7 nM
Average IC50, nM; hGLP-1R-CRE-Luciferase-HEK293 reporter gene assay; antibody in PBS pH 7.4 at 40 C, Day 10 [1]: 20.6 nM
Average IC50, nM; hGLP-1R-CRE-Luciferase-HEK293 reporter gene assay; antibody in PBS pH 7.4 at 40 C, Day 20 [1]: 18.4 nM
Average IC50, nM; hGLP-1R-CRE-Luciferase-HEK293 reporter gene assay; antibody in PBS pH 7.4 at 40 C, Day 30 [1]: 18.7 nM
IC50, inhibition of GLP-1 (2.5 ng/ml) activity in hGLP-1R-CRE-Luciferase-HEK293 reporter gene assay [1]: 0.0174 µM
IC50, inhibition of GLP-1 (2.5 ng/mL) activity in monkey GLP-1R-CRE-Luciferase-HEK293 reporter gene assay [2]: 0.0153 µM
B1: P16888 (antibody, human IgG4 S228P, kappa)
heavy: QVQLVQSGAEMKKPGASVKVSCKTSGYRFSTYVISWVRQTPGQGLEWMGWISPYTGDIDYAQKFQGRVTITADESTSTAYMELSRLRSDDTAVYYCAREREGYNFPGMDVWGQGTTVTVSSASTKGPSVFPLAPCSRSTSESTAALGCLVKDYFPEPVTVSWNSGALTSGVHTFPAVLQSSGLYSLSSVVTVPSSSLGTKTYTCNVDHKPSNTKVDKRV[human IgG4 Fc with S228P (EU numbers) not listed]
light: DIQLTQSPSFLSASVGDRVTITCRASQGISSYLAWYQQKPGRAPKLLIYSASTLQRGVPSRFSGSGSGTDFTLTISSLQPEDYATYYCQQAESFPPSFGPGTKVDIKRTVAAPSVFIFPPSDEQLKSGTASVVCLLNNFYPREAKVQWKVDNALQSGNSQESVTEQDSKDSTYSLSSTLTLSKADYEKHKVYACEVTHQGLSSPVTKSFNRGEC
